Laboratory results as given in the supplement of paper PMC12217912.
The list shows a part of the results. The full chains were built here from the parent and the listed change. Values near 0.05 are background.

B1: TEV protease; numbered along this chain (parent)
chain: MGESLFKGPRDYNPISSSICHLTNESDGHTTSLYGIGFGPFIITNKHLFRRNNGTLVVQSLHGVFKVKDTTTLQQHLVDGRDMIIIRMPKDFPPFPQKLKFREPQREERICLVTTNFQTKSMSSMVSDTSCTFPSGDGIFWKHWIQTKDGQCGSPLVSTRDGFIVGIHSASNFTNTNNYFTSVPKNFMELLTNQEAQQWVSGWRLNADSVLWGGHKVFMVKPEEPFQPVKEATQL

Variants of: B1
Test: raw area under fraction-flipped curve 0-4 h after induction (AUC4h, not background-subtracted), DNA-recorder readout of cleavage of the substrate (dimensionless); higher = more cleavage of the substrate by the protease variant
Details: temperature: 34 °C; time window: 0-4 h after rhamnose induction
Protocol: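 In vivo DNA recorder in E. coli TOP10(DE3) ΔrhaA at 34 °C. Each TEVp single-site mutant (parent TEVp 0) is paired with a single-site variant of the 7-mer TEVs (canonical ENLYFQ|S). The substrate sits between flexible linkers in a Bxb1-sfGFP-TEVs-SsrA fusion, so cleavage stabilises Bxb1 and speeds flipping of a recombination array, read by NGS. The value is the raw area under the fraction-flipped curve over 0-4 h after rhamnose induction (AUC4h), with ≥20 reads per time point. It is not background-subtracted; inactive controls average about 0.047.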
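Also: Bxb1 expression induced with 0.2% (w/v) L-rhamnose at OD600 near 0.5, cultures sampled hourly, flipped fraction per protease–substrate barcode pair counted by paired-end Illumina sequencing.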

Variant | area with substrate ENLAFQS | area with substrate ENLCFQS | area with substrate ENLDFQS | area with substrate ENLFFQS | area with substrate ENLKFQS | area with substrate ENLNFQS | area with substrate ENLQFQS | area with substrate ENLRFQS | area with substrate ENLWFQS | area with substrate ENLEFQS | area with substrate ENLGFQS | area with substrate ENLHFQS | area with substrate ENLIFQS | area with substrate ENLLFQS | area with substrate ENLPFQS | area with substrate ENLSFQS | area with substrate ENLVFQS | area with substrate ENLTFQS
MGESLFKGPRDYNPISSSICHLTNESDGHTTSLYGIGFGPFIITNKHLFRRNNGTLVVQSLHGVFKVKDTTTLQQHLVDGRDMIIIRFPKDFPPFPQKLKFREPQREERICLVTTNFQTKSMSSMVSDTSCTFPSGDGIFWKHWIQTKDGQCGSPLVSTRDGFIVGIHSASNFTNTNNYFTSVPKNFMELLTNQEAQQWVSGWRLNADSVLWGGHKVFMVKPEEPFQPVKEATQL [M88F] | 0.0569 | 0.0892 | 0.0575 | 0.0713 | 0.0695 | 0.0553 | 0.0955 | 0.0554 | 0.0524 | – | – | – | – | – | – | – | – | –
MGESLFKGPRDYNPISSSICHLTNESDGHTTSLYGIGFGPFIITNKHLFRRNNGTLVVQSLHGVFKVKDTTTLQQHLVDGRDMIIIRNPKDFPPFPQKLKFREPQREERICLVTTNFQTKSMSSMVSDTSCTFPSGDGIFWKHWIQTKDGQCGSPLVSTRDGFIVGIHSASNFTNTNNYFTSVPKNFMELLTNQEAQQWVSGWRLNADSVLWGGHKVFMVKPEEPFQPVKEATQL [M88N] | 0.0504 | 0.0601 | 0.0496 | 0.0809 | 0.0563 | 0.0526 | – | 0.0675 | – | 0.062 | 0.0774 | 0.0637 | 0.0541 | 0.0592 | 0.0357 | 0.0497 | – | –
MGESLFKGPRDYNPISSSICHLTNESDGHTTSLYGIGFGPFIITNKHLFRRNNGTLVVQSLHGVFKVKDTTTLQQHLVDGRDMIIIRPPKDFPPFPQKLKFREPQREERICLVTTNFQTKSMSSMVSDTSCTFPSGDGIFWKHWIQTKDGQCGSPLVSTRDGFIVGIHSASNFTNTNNYFTSVPKNFMELLTNQEAQQWVSGWRLNADSVLWGGHKVFMVKPEEPFQPVKEATQL [M88P] | 0.0544 | – | 0.0581 | 0.0743 | 0.0637 | – | 0.0461 | 0.0656 | – | 0.0541 | – | 0.0569 | 0.077 | 0.0733 | 0.0618 | 0.0515 | 0.0789 | –
MGESLFKGPRDYNPISSSICHLTNESDGHTTSLYGIGFGPFIITNKHLFRRNNGTLVVQSLHGVFKVKDTTTLQQHLVDGRDMIIIRRPKDFPPFPQKLKFREPQREERICLVTTNFQTKSMSSMVSDTSCTFPSGDGIFWKHWIQTKDGQCGSPLVSTRDGFIVGIHSASNFTNTNNYFTSVPKNFMELLTNQEAQQWVSGWRLNADSVLWGGHKVFMVKPEEPFQPVKEATQL [M88R] | 0.0589 | 0.0458 | 0.0529 | 0.0334 | – | 0.0454 | 0.0594 | – | 0.0431 | – | – | 0.0339 | – | – | 0.0461 | 0.0539 | 0.0562 | 0.0466
MGESLFKGPRDYNPISSSICHLTNESDGHTTSLYGIGFGPFIITNKHLFRRNNGTLVVQSLHGVFKVKDTTTLQQHLVDGRDMIIIRTPKDFPPFPQKLKFREPQREERICLVTTNFQTKSMSSMVSDTSCTFPSGDGIFWKHWIQTKDGQCGSPLVSTRDGFIVGIHSASNFTNTNNYFTSVPKNFMELLTNQEAQQWVSGWRLNADSVLWGGHKVFMVKPEEPFQPVKEATQL [M88T] | 0.0479 | 0.074 | – | 0.0883 | 0.0728 | 0.0687 | 0.0766 | – | – | 0.055 | – | – | – | 0.0636 | – | 0.0586 | – | –
MGESLFKGPRDYNPISSSICHLTNESDGHTTSLYGIGFGPFIITNKHLFRRNNGTLVVQSLHGVFKVKDTTTLQQHLVDGRDMIIIRVPKDFPPFPQKLKFREPQREERICLVTTNFQTKSMSSMVSDTSCTFPSGDGIFWKHWIQTKDGQCGSPLVSTRDGFIVGIHSASNFTNTNNYFTSVPKNFMELLTNQEAQQWVSGWRLNADSVLWGGHKVFMVKPEEPFQPVKEATQL [M88V] | 0.0576 | 0.0778 | 0.0534 | 0.0884 | 0.0668 | 0.06 | 0.0313 | 0.0683 | – | – | – | 0.075 | – | – | – | 0.0609 | – | –
MGESLFKGPRDYNPISSSICHLTNESDGHTTSLYGIGFGPFIITNKHLFRRNNGTLVVQSLHGVFKVKDTTTLQQHLVDGRDMIIIRMPKDFPPYPQKLKFREPQREERICLVTTNFQTKSMSSMVSDTSCTFPSGDGIFWKHWIQTKDGQCGSPLVSTRDGFIVGIHSASNFTNTNNYFTSVPKNFMELLTNQEAQQWVSGWRLNADSVLWGGHKVFMVKPEEPFQPVKEATQL [F95Y] | 0.0392 | 0.0713 | 0.0459 | 0.0637 | 0.0936 | – | 0.1 | 0.0804 | 0.0444 | 0.0597 | 0.063 | 0.0809 | 0.0876 | 0.0767 | – | – | – | –
MGESLFKGPRDYNPISSSICHLTNESDGHTTSLYGIGFGPFIITNKHLFRRNNGTLVVQSLHGVFKVKDTTTLQQHLVDGRDMIIIRMPKDFPPFHQKLKFREPQREERICLVTTNFQTKSMSSMVSDTSCTFPSGDGIFWKHWIQTKDGQCGSPLVSTRDGFIVGIHSASNFTNTNNYFTSVPKNFMELLTNQEAQQWVSGWRLNADSVLWGGHKVFMVKPEEPFQPVKEATQL [P96H] | 0.069 | 0.0741 | 0.0823 | 0.0705 | 0.0783 | 0.0357 | – | 0.0744 | – | 0.0682 | – | 0.0678 | 0.0618 | 0.0634 | 0.0439 | 0.0802 | – | –
MGESLFKGPRDYNPISSSICHLTNESDGHTTSLYGIGFGPFIITNKHLFRRNNGTLVVQSLHGVFKVKDTTTLQQHLVDGRDMIIIRMPKDFPPFQQKLKFREPQREERICLVTTNFQTKSMSSMVSDTSCTFPSGDGIFWKHWIQTKDGQCGSPLVSTRDGFIVGIHSASNFTNTNNYFTSVPKNFMELLTNQEAQQWVSGWRLNADSVLWGGHKVFMVKPEEPFQPVKEATQL [P96Q] | 0.077 | – | 0.0819 | 0.0932 | 0.0753 | 0.0636 | 0.0557 | – | 0.0605 | 0.0525 | – | 0.0664 | – | 0.0598 | – | 0.0672 | – | –
MGESLFKGPRDYNPISSSICHLTNESDGHTTSLYGIGFGPFIITNKHLFRRNNGTLVVQSLHGVFKVKDTTTLQQHLVDGRDMIIIRMPKDFPPFPQWLKFREPQREERICLVTTNFQTKSMSSMVSDTSCTFPSGDGIFWKHWIQTKDGQCGSPLVSTRDGFIVGIHSASNFTNTNNYFTSVPKNFMELLTNQEAQQWVSGWRLNADSVLWGGHKVFMVKPEEPFQPVKEATQL [K98W] | 0.0659 | 0.0763 | 0.0718 | 0.0779 | 0.0622 | 0.0566 | 0.0548 | 0.0637 | 0.0475 | 0.0554 | – | – | 0.0796 | 0.0678 | 0.0728 | 0.0612 | – | –
